The values below come from PMC7819943, “Rice protein-binding microarrays: a tool to detect cis-acting elements near promoter regions in rice”.

The list shows a part of the results.

The target of this assay is T1, OsWOX13 (Oryza sativa, UniProt Q5QMM3 1-267).
T1 sequence: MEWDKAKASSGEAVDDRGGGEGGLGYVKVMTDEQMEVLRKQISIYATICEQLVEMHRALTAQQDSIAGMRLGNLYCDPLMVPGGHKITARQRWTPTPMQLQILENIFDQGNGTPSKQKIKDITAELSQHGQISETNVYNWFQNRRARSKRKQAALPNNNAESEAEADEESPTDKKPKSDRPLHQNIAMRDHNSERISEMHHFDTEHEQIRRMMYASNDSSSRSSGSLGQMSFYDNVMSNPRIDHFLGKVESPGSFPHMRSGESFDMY
Nature of the assay: protein-binding microarray (RPBM); PBS, 2% BSA, 51.3 ng/ul salmon testes DNA, 50 uM zinc acetate, 200 nM TF, 25 C, 1 h; high values mean tight binding. Particulars: protein: recombinant; tags: N-terminal polyhistidine and DsRed monomer fusion (pET32a); label: CyDye5-dUTP incorporated in the synthesized complementary strand; 3' TTTTT single-stranded linker to array surface; dsDNA, one strand shown. Put shortly:
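The binding signal is fluorescence intensity per array feature (arbitrary units). Readings came from an Axon 4000B scanner after a washed, 2% BSA-blocked, double-stranded custom Agilent array had been incubated for 1 h at 25 °C with 200 nM protein and 50 µM zinc acetate. The protein was a Ni–NTA-purified transcription factor fused N-terminally to polyhistidine and DsRed, expressed in E. coli BL21-CodonPlus.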
As to “CATAATATTATAAATTTAGACAGGGAGCATGTATAGATTCCGGAGTCACCTAGTGCAG”, the binding signal was 14200 fluorescence intensity (a.u.).

As for “TAAATTAATCATGCATGCATGGCCATTTTAGTCCGTACATCGGAGTCACCTAGTGCAG”, the binding signal was 4900 fluorescence intensity (a.u.).

On to “CCACTAATCATACTTATCAGCCGCTCAATCAGAGTGACAACGGAGTCACCTAGTGCAG”, for which the binding signal was 15000 fluorescence intensity (a.u.).

Turning to “TCATGTAATTGTTGATAAGAGTGTCAGAATTCAGATAGTGCGGAGTCACCTAGTGCAG”, the binding signal was 13500 fluorescence intensity (a.u.).

Consider “GAGTGACAGAGACATAGCAACTAACAGTCACAGGCAGGCACGGAGTCACCTAGTGCAG”, for which the binding signal was 5390 fluorescence intensity (a.u.).

Consider “CTCTGTCCATCACCACTTGATTAGGAGGGATCTAAATGGTCGGAGTCACCTAGTGCAG”, for which the binding signal is 15100 fluorescence intensity (a.u.).

Turning to “CGATGACAGGATGAGTGACCTCAAGTGAACCTTTTCCACTCGGAGTCACCTAGTGCAG”, the binding signal is 9930 fluorescence intensity (a.u.).

“TTTATATTAGTGAGTAAATTGGTGATGAAATTTCTATAACCGGAGTCACCTAGTGCAG”: the binding signal is 16300 fluorescence intensity (a.u.).

On to “CGATTGAAATTTCGATAATTTCGTCAAAGCCGATTGGTTTCGGAGTCACCTAGTGCAG”, for which the binding signal was 13400 fluorescence intensity (a.u.).

Regarding “AGGTAATCAAGGTGATAATTTGAGCTACTAGACCACTACTCGGAGTCACCTAGTGCAG”, the binding signal is 24100 fluorescence intensity (a.u.).

On to “GCCACTGATGGGATTTCCTTAACTACCAAGCAACAAACCGCGGAGTCACCTAGTGCAG”, for which the binding signal is 7830 fluorescence intensity (a.u.).

As for “AGCGCCTAATTAACCCGTGAACAACGTGTCTTTTCATCGTCGGAGTCACCTAGTGCAG”, the binding signal is 7010 fluorescence intensity (a.u.).

For “GATAATGAATCATTGTTGTGTCCATGTATATTACATCATGCGGAGTCACCTAGTGCAG”, the binding signal was 3310 fluorescence intensity (a.u.).

With “CCCTAATCACCATCAATCAAGGTACGAGATAATTAAGAGACGGAGTCACCTAGTGCAG”, the binding signal was 38000 fluorescence intensity (a.u.).

With “TAGTAATTTATTCCTTATTGGTTTTCACAACTCAAATAATCGGAGTCACCTAGTGCAG”, the binding signal was 13800 fluorescence intensity (a.u.).

Regarding “CTTGATTGGATCAGGATCATTTGGCATGGTTTACAAGGGCCGGAGTCACCTAGTGCAG”, the binding signal is 65100 fluorescence intensity (a.u.).

On to “AAAGATAATTGAAAAGTAAACTTGTTGACAGACGGAATCCCGGAGTCACCTAGTGCAG”, for which the binding signal is 30400 fluorescence intensity (a.u.).

For “CCCCTCGCTTCCCGCCCTTCACTTCTCCCCTTCCAAGAAACGGAGTCACCTAGTGCAG”, the binding signal is 3340 fluorescence intensity (a.u.).

As to “ATTAATTATATATATTATTTCCATCTGCGGGAGGAATTCGCGGAGTCACCTAGTGCAG”, the binding signal was 35800 fluorescence intensity (a.u.).

For “TGTGATTGTCTTAATCTTATTACAGAGCCCAGTCTCACGTCGGAGTCACCTAGTGCAG”, the binding signal is 49000 fluorescence intensity (a.u.).

“CATGTTTCCTTATGTCATACCTGACAATCCTGCCAATATCCGGAGTCACCTAGTGCAG”: the binding signal is 3230 fluorescence intensity (a.u.).

On to “TAAACTGATATAAGTGCCTAAATTTGGATTGAGGGTGGTGCGGAGTCACCTAGTGCAG”, for which the binding signal was 8300 fluorescence intensity (a.u.).

Regarding “AGCTAATACTTAATTAATCACGCGTTAATGGACTGCTCCGCGGAGTCACCTAGTGCAG”, the binding signal was 26700 fluorescence intensity (a.u.).

For “ACGATCACCGGACTAATTGACTTTCCCGACTAATAATAAACGGAGTCACCTAGTGCAG”, the binding signal is 11300 fluorescence intensity (a.u.).

As to “ATTTATTTGATTTAAATGGATCAATTACCCAATTAAATCTCGGAGTCACCTAGTGCAG”, the binding signal was 32600 fluorescence intensity (a.u.).

Turning to “ATATATATATATATATATATATATATATAGAGAGAGAGAGCGGAGTCACCTAGTGCAG”, the binding signal is 10500 fluorescence intensity (a.u.).

Turning to “GTAAATTACTCCAACCCTTTCTCTCCATGCATCTCACCTCCGGAGTCACCTAGTGCAG”, the binding signal is 7640 fluorescence intensity (a.u.).

As for “TACTGGTAAGTACCTTTAATTGATTGGGCCCGTATACCTTCGGAGTCACCTAGTGCAG”, the binding signal was 20500 fluorescence intensity (a.u.).

As to “TTTAATTCATCATAATCTAATAACCGAAAATTTAGTAGTACGGAGTCACCTAGTGCAG”, the binding signal was 3610 fluorescence intensity (a.u.).

As for “TCAAAATTGGATCAATCCCTGCAATTAGCGATCCACACAGCGGAGTCACCTAGTGCAG”, the binding signal was 22800 fluorescence intensity (a.u.).

In the case of “CGTGATGAAGATTAAGGACCTGTTTAGATTGGTGTCATTTCGGAGTCACCTAGTGCAG”, the binding signal was 13500 fluorescence intensity (a.u.).

On to “TATCATAAATGATCCTACTAATTAGTACTCCTAATATATGCGGAGTCACCTAGTGCAG”, for which the binding signal is 19900 fluorescence intensity (a.u.).

On to “CCTAAAATTATTTCTTACTATGATTTGTGATGTCGCGCTTCGGAGTCACCTAGTGCAG”, for which the binding signal is 18800 fluorescence intensity (a.u.).

Take “GGTAATGCAAAATGATTATATATCATCTCTTTTCTCCCTCCGGAGTCACCTAGTGCAG”: the binding signal is 21200 fluorescence intensity (a.u.).

“TTTCATCCCTCCAAATTGCCAATCTAATCAAACACTTAAGCGGAGTCACCTAGTGCAG”: the binding signal was 18100 fluorescence intensity (a.u.).

“AATCCATGATTAGCCTATGTGATGCTACAGTAAATATGTGCGGAGTCACCTAGTGCAG”: the binding signal was 13200 fluorescence intensity (a.u.).

On to “TGTGTAAGTATAACGTTATATGATTAATGATGAACACGCACGGAGTCACCTAGTGCAG”, for which the binding signal is 3180 fluorescence intensity (a.u.).

Consider “TGATTGATTACACTAATGTGTTCCTTAGCTCATGTCAGCACGGAGTCACCTAGTGCAG”, for which the binding signal was 43700 fluorescence intensity (a.u.).

With “GTTAATAGCCTCATCACTCTAAACTTCCACGACTTGTTTGCGGAGTCACCTAGTGCAG”, the binding signal is 5850 fluorescence intensity (a.u.).

“AATCTGGATTGATAAAGTTTTACTCCCTTCATCCTTAAAACGGAGTCACCTAGTGCAG”: the binding signal was 8100 fluorescence intensity (a.u.).

In the case of “ACAAATAATTTTGTCCCAGAAATATCATCGTCGTTAGGGTCGGAGTCACCTAGTGCAG”, the binding signal is 4240 fluorescence intensity (a.u.).

On to “TGAGCCAATCAATCTGCTTGGTCCAGTGGTACCTGTTAGCCGGAGTCACCTAGTGCAG”, for which the binding signal was 18200 fluorescence intensity (a.u.).

“AGAGAAAGCAATTAGCCACTAACAGAGAGCAAAGAGGACACGGAGTCACCTAGTGCAG”: the binding signal was 4410 fluorescence intensity (a.u.).

Take “GGGCTAATTTGGTTTGAGATCTAAATTAGGCTTGCCAATTCGGAGTCACCTAGTGCAG”: the binding signal was 28000 fluorescence intensity (a.u.).

For “TGGTTACAGTTGATAGATCAAACAAGTTGATATGCTGAATCGGAGTCACCTAGTGCAG”, the binding signal was 3580 fluorescence intensity (a.u.).

Regarding “ACCTTAATGGACACATCATGCCCAACTAAATCCATATTTGCGGAGTCACCTAGTGCAG”, the binding signal was 24400 fluorescence intensity (a.u.).

For “CTCAAAATTAGCTCCAAATTTACGGTTGAAAATTCAAAATCGGAGTCACCTAGTGCAG”, the binding signal was 6450 fluorescence intensity (a.u.).

For the sequence “TAGTGTGTTAATTTAAATTAAAGTTCTTCCAACTGAATTTCGGAGTCACCTAGTGCAG”, the binding signal was 33100 fluorescence intensity (a.u.).

In the case of “GTCATCTTACTTTGATAGTTAATTGTTCCATCTAAAACTTCGGAGTCACCTAGTGCAG”, the binding signal is 5320 fluorescence intensity (a.u.).

With “AGGATGGGGATAGGGTTGATTTGTAATAGGGGTATTTTGGCGGAGTCACCTAGTGCAG”, the binding signal was 5940 fluorescence intensity (a.u.).

Turning to “ATTTTACCCAAATAGCTTAAACCACAACAGTTTTGGCTAGCGGAGTCACCTAGTGCAG”, the binding signal is 6050 fluorescence intensity (a.u.).

For the sequence “ATATAGTAAACTAGAACCGGATTGAACGTATCCTAGTACTCGGAGTCACCTAGTGCAG”, the binding signal is 3200 fluorescence intensity (a.u.).

As to “AGCTAATTAATTCCCACTACTGAGTGCTAATAACTCCCGCCGGAGTCACCTAGTGCAG”, the binding signal is 46200 fluorescence intensity (a.u.).

Regarding “GTGTAATTACAATGTAACTTGTATGTAATTACACTGTAACCGGAGTCACCTAGTGCAG”, the binding signal is 31900 fluorescence intensity (a.u.).
